In PubChem BioAssay AID686970 (National Center for Advancing Translational Sciences (NCATS), 2013):
Hit rate of the full screen: of about 360,000 compounds, about 6,000 (1.7%) were called active. The shares of active, inactive and inconclusive entries below differ from those in the screen. The call rests on the fitted dose curve; in most records, active means well fitted cell-killing curve with a large enough effect; inconclusive means small, poorly fitted or top-dose-only effect, or effect the other way; inactive means flat fitted curve, though single readings scatter. No potency is given beside an inconclusive call; the fits are too rough.

Assay: qHTS for induction of synthetic lethality in tumor cells producing 2HG: qHTS for the HT-1080-NT fibrosarcoma cell line;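 further: NT is the 2HG producing partner of a matched IDH1 knockdown line; nearly all actives have a fitted effect of over 55% in size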;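 on activity, negative = less viability: 0% = DMSO-treated cells and -100% = media-only wells without cells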
Conditions: HT-1080-NT fibrosarcoma viability, CellTiter-Glo ATP luminescence, 48 h; activity, negative = less viability: at 46.1 µM (top of the series) unless noted
Method in brief: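 Read-out is CellTiter-Glo luminescence after 10 minutes at room temperature, following 48 hours' compound treatment of HT-1080-NT cells (750 cells/well, RPMI, 5% FBS, 37 degrees C).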
Potency means the concentration at half of the fitted maximal effect; tags describe the fitted curve by direction and shape.

| SMILES | Potency | activity, negative = less viability |
| --- | --- | --- |
| CCOC(=O)C(C(=O)OCC)C1N=C(N)N=C2Oc3ccccc3N21 (centres undefined) | inconclusive [cytotoxic, partial curve] | – |
| C=CCn1c(CNc2ccc(C)cc2)nnc1SCC(=O)N/N=C/c1ccc(O)cc1O | inconclusive [cytotoxic, partial curve] | – |
| COc1ccc(C(=O)COC(=O)c2cc(=O)c3ccccc3o2)cc1 | – | inactive: 19.1% |
| CCN(CC)c1ccc(S(=O)(=O)N2CCOCC2)cc1NC(=O)COC(=O)/C=C/c1ccc(O)c(OC)c1 | – | inactive: 2.28% |
| C=CCn1c(SCc2c(C)noc2C)nc2ccccc2c1=O | active: 0.562 µM | – |
| CN1CCN(c2ccc(CNC(=O)C3(C)Cc4c(-c5ccc6c(c5)OCO6)ccnc4O3)cc2)CC1 (centres undefined) | inconclusive [cytotoxic, single point] | – |
| CCc1ccc(OCC(=O)Nc2nnc(-c3ccco3)s2)cc1 | inconclusive [rising, full curve, poor fit] | – |
| CN(C)c1ccc(N=Nc2cccc(F)c2)cc1 | – | inactive: 1.78% |
| O=C1OC(c2ccc(F)cc2)CC1CN1CCOCC1 (centres undefined) | inconclusive [cytotoxic, single point] | – |
| CCN1CCN(S(=O)(=O)c2ccc(Cl)c(C(=O)N(C)Cc3ccc(Cl)cc3Cl)c2)CC1 | – | inactive: -9.64% |
| CC(=O)c1ccc(N2CCN(C(=O)COc3ccccc3F)CC2)c(F)c1 | – | inactive: 10.1% |
| COc1ccc(-c2noc(C3CCCN(C(=O)c4ccccc4)C3)n2)cc1 (centres undefined) | inconclusive [cytotoxic, single point] | – |
| COc1ccc(Nc2c3c(nc4ccccc24)CCC3)c(OC)c1 | active: 18.4 µM | – |
| CCCCN(C(=O)C1CCN(C(=O)c2ccccc2C)CC1)c1c(N)n(CCC)c(=O)[nH]c1=O | – | inconclusive: -3.88% [cytotoxic] |
| COc1ccc(C2CC(c3cccs3)=NN2C(=O)CCl)cc1OC (centres undefined) | active: 4.61 µM | – |
| COc1ccc(N=Cc2cc3c(cc2O)OC(N)=C(C#N)C3c2ccccc2)cc1 (centres undefined) | inconclusive [cytotoxic, partial curve] | – |
| O=C(O)CCc1nc2cc(C(F)(F)F)ccc2n(Cc2ccccc2)c1=O | – | inactive: -9.7% |
| Cc1ccc2[nH]c(C(=O)N/N=C/c3ccccc3O)c(C)c2c1 | inconclusive [cytotoxic, full curve] | – |
| CCCC(=O)Nc1ccc(C(=O)N/N=C/c2cccnc2)cc1 | inconclusive [cytotoxic, single point] | – |
| Cc1sc2nc(CN(C(=O)NC3CCCCC3)C3CCCC3)[nH]c(=O)c2c1C | – | inactive: 13.9% |
| Brc1ccc(OCc2nnnn2-c2ccccc2)cc1 | – | inactive: -17.4% |
| CC1(C(=O)Nc2ccccc2)Cc2c(-c3ccc4c(c3)OCO4)ccnc2O1 (centres undefined) | inconclusive [cytotoxic, single point] | – |
| S=C(Nc1ccccc1)N1CCn2c1nc1ccccc12 | active: 1.41 µM | – |
| Cc1cc(C)c2cc(C#N)c(NCCCN)nc2c1 | – | inconclusive: -33.6% [cytotoxic] |
| c1ccc(Cn2c(CN3CCCC3)nc3ccccc32)cc1 | – | inactive: -5.37% |

| SMILES | Potency | activity, negative = less viability |
| --- | --- | --- |
| Nn1c(SCC(=O)Nc2nccs2)nnc1-c1ccccn1 | – | inactive: 14.8% |
| Clc1ccc(-c2nc(NCCN3CCOCC3)c3ccccc3n2)cc1 | inconclusive [cytotoxic, single point] | – |
| Cc1cc(NS(=O)(=O)c2ccc(NC(=O)CCCOc3ccccc3C)cc2)no1 | – | inactive: 4.45% |
| COc1ccc(Nc2nc(-c3ccncc3)nc3ccccc23)cc1 | – | inactive: -25% |
| Brc1ccc2ncnc(Nc3cccc4ccccc34)c2c1 | inconclusive [cytotoxic, single point] | – |
| COc1ccccc1C(=O)NC(=S)Nc1ccc(N2CCOCC2)cc1 | – | inconclusive: -5.86% [cytotoxic] |
| O=C(Nc1cccc2ccccc12)N1CCN(Cc2ccccc2)CC1 | – | inactive: -7.67% |
| COc1ccc(CN2C(=O)C(C)Nc3ncnc(N4CCc5ccccc5C4)c32)cc1 (centres undefined) | active: 2.06 µM | – |
| CCC(CC)C(=O)Nc1c(C(=O)N2CCN(c3ccccc3)CC2)oc2ccccc12 | inconclusive [cytotoxic, single point] | – |
| CCCCCc1cc(=O)oc2c(C(CCN3CCCC(C)C3)c3cc(OC)c(OC)c(OC)c3)c(OC)cc(OC)c12 (centres undefined) | inconclusive [cytotoxic, single point] | – |
| CC(C)C[C@H]1COCCS(=O)(=O)N1Cc1cccc(C(F)(F)F)c1 | inconclusive [rising, single point] | – |
| Cc1nc2scc(-c3ccc(C(C)C)cc3)c2c(=O)n1N | – | inactive: -15.2% |
| O=[N+]([O-])CC(c1ccc(F)cc1)c1c[nH]c2ccccc12 (centres undefined) | inconclusive [cytotoxic, partial curve] | – |
| Cc1cc(O)c(/C=N/Nc2ccccc2)c(=O)o1 | inconclusive [cytotoxic, full curve] | – |
| COc1ccc(-n2c(C)cc(C(=O)NC3CCCCC3)c2C)cc1 | inconclusive [cytotoxic, single point] | – |
| N#CC1=C(N)Oc2n[nH]c(-c3cccs3)c2C1C1CCCCC1 (centres undefined) | inconclusive [cytotoxic, single point] | – |
| c1ccc(Cn2c[n+](Cc3ccccc3)c3ccccc32)cc1 | inconclusive [cytotoxic, single point] | – |
| Cn1c(=O)c2c(nc(CN3CCN(C(=O)c4ccco4)CC3)n2CCc2ccccc2)n(C)c1=O | – | inactive: 3.87% |
| CCCCn1c(-c2ccco2)nc2ccccc2c1=O | – | inactive: -5.44% |
| CCn1cc(C2=NC(C)(C)CO2)c2ccccc21 | inconclusive [cytotoxic, single point] | – |
| O=C1c2ccccc2C(=O)N1CCCc1cn(C[C@H]2CC[C@H](Cn3cc(CCCN4C(=O)c5ccccc5C4=O)nn3)O2)nn1 | – | inactive: -1.41% |
| O=S(=O)(/N=C(/c1ccccc1)N1CCOCC1)c1ccc(F)cc1 | – | inactive: 1.52% |
| COc1ccc(C(NC(=O)C2CCN(C/C=C/c3ccc(OC(C)=O)c(OC)c3)CC2)c2ccccn2)cc1 (centres undefined) | inconclusive [cytotoxic, partial curve] | – |
| CCn1c(=O)cc(SCC(=O)Nc2cccc(SC)c2)c2ccccc21 | – | inactive: -11.5% |
